From PubChem BioAssay AID743279 (National Center for Advancing Translational Sciences (NCATS), 2014)
About 17,000 (4.7%) of roughly 360,000 compounds were called active. The shares of active, inactive and inconclusive entries below differ from those in the screen. Cut-off read from the data, not from the text of the source: active = activity change below about -50%; inconclusive = mostly about -30% to -49%; inactive = weaker than that.

Assay: qHTS for Inhibitors of Inflammasome Signaling: IL-1-beta AlphaLISA Primary Screen
Conditions: THP-1 LPS/ATP IL-1B secretion, 16 h; at 57.5 µM, stronger effect = lower value
How it was run: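 Secreted IL-1B measured by AlphaLISA bead assay after 16 h compound exposure of THP-1 cells; compounds (final up to 57.5 uM) added 1 h before LPS (250 ng/mL) and ATP (1.25 mM) stimulation; lower signal means less secretion.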
% is set by controls: 0 for no effect and ±100 for the full control effect.

| Structure (SMILES) | activity change |
| --- | --- |
| COc1ccc(-c2c([C@H]3[C@H]4C=CC[C@@H](C)[C@@H]4C(=O)N3Cc3ccccc3)ccc3ccccc23)cc1OC | inconclusive: -49.5% |
| Cc1ccc(CC(=O)NC2CCSC2=O)cc1 (stereo not drawn) | inactive: 1.2% |
| CC(=O)N/N=C\c1cccc(OC/C=C/c2ccccc2)c1 | inactive: -9.45% |
| NC(=NCCc1c[nH]c2ccccc12)NS(=O)(=O)c1ccc2ccccc2c1 | inconclusive: -41.9% |
| O=c1[nH]c(C2CCN(S(=O)(=O)c3cccc(C(F)(F)F)c3)CC2)nc2c1nnn2Cc1cccc(F)c1 | active: -68.4% |
| CCN1CCCC1CNCC(O)COc1ccc(C(C)(C)C)cc1C (stereo not drawn) | inconclusive: -34.3% |
| CCCNC(=O)c1c(N)n(-c2cc(OC)cc(OC)c2)c2nc3ccccc3nc12 | active: -55.2% |
| COc1ccc2cc(S(=O)(=O)c3ccccc3)c(=O)oc2c1 | inconclusive: -36.7% |
| CN(Cc1cccc2cnccc12)C(=O)c1cc(COc2ccc(F)cc2F)on1 | inconclusive: -45% |
| Cc1ccc(S(=O)(=O)c2nc(-c3ccccc3Br)oc2N(C)C)cc1 | inactive: 14.9% |
| N#CCC(CNc1ncc(C(F)(F)F)cc1Cl)OC(=O)c1ccc(Cl)cc1Cl (stereo not drawn) | inconclusive: -33.4% |
| COc1ccc(-c2nc(C#N)c(N3CCOCC3)o2)cc1OC | inconclusive: -42.1% |
| COc1cc(/C=C/[N+](=O)[O-])ccc1OCc1cccc(C(=O)O)c1 | active: -96.8% |
| COc1ccccc1C(=O)NCCC(=O)Nc1ccc(S(=O)(=O)N2CCCC(C)C2)cc1 (stereo not drawn) | inconclusive: -38.6% |
| COc1ccc(N2C(=O)N(Cc3ccc(C)cc3)c3ccccc3S2(=O)=O)cc1 | inactive: 9.13% |
| O=C(C[n+]1cccc(C(=O)Nc2ccccc2)c1)c1ccc(Cl)cc1 | inconclusive: -42.7% |
| CCOC(=O)Cn1c(=NC(=O)CSC(C)=O)sc2cc(F)ccc21 | inconclusive: -37.9% |
| Cc1ccc(C(C(=O)NC2CCCCC2)N(Cc2cccnc2)C(=O)C2COc3ccccc3O2)o1 (stereo not drawn) | inconclusive: -30.6% |
| Cc1[nH]nc2c1C1(CCN(C(=O)OCc3ccccc3)CC1)C(C#N)=C(N)O2 | inconclusive: -36.5% |
| O=C(CS)Nc1ccc2ccccc2c1 | active: -94.9% |
| CC(=O)Nc1ccc(-c2ccnc3c2CC(C(=O)Nc2ccc(Cl)c(C(F)(F)F)c2)O3)cc1 (stereo not drawn) | inconclusive: -41.1% |
| C=CCCCCCCCCC(=O)NN | inconclusive: -47.8% |
| CCN(CC)CCn1c(SCC(=O)Nc2ccc3c(c2)CCC3)nc2ccccc2c1=O | inconclusive: -38.1% |
| CCOc1ccc2c3c(c(=O)oc2c1OCC)CCCC3 | active: -52.3% |
| O=C1Nc2ccccc2O/C1=C\c1ccccc1Br | inactive: 5.99% |
| Cc1ccc(NC(=O)c2cnn(-c3ccccc3)c2C)cc1 | inconclusive: -39.3% |
| CC(c1nc2ccccc2c(=O)[nH]1)N(C)CCOc1ccc(Cl)cc1 (stereo not drawn) | inactive: 4.86% |

| Structure (SMILES) | activity change |
| --- | --- |
| Cc1nc(CCNC(=O)c2cc(COc3ccc(F)cc3Cl)on2)sc1C | inconclusive: -34.3% |
| Cc1noc(C)c1S(=O)(=O)Nc1ccc2c(c1)C(=O)N([C@@H](C)CO)C[C@H](C)[C@@H](CN(C)Cc1ccc(C(F)(F)F)cc1)OCCCC[C@H](C)O2 | inconclusive: -47.2% |
| COc1ccccc1N(CC(=O)NCCSc1ccccc1)S(=O)(=O)c1ccccc1 | inactive: -14.4% |
| COc1cc(OC)cc(C(=O)NC(C(=O)Nc2ccc3c(c2)CCC3)C(C)C)c1 (stereo not drawn) | inactive: -14.7% |
| CCOC(=O)c1ccc(-n2cnc(-c3ccc([N+](=O)[O-])cc3)c2)cc1 | inconclusive: -34.4% |
| Cc1ccc(-c2onc(C)c2C)cc1S(=O)(=O)N1CCOc2ccccc21 | inconclusive: -34.9% |
| CC1CC(C)CN(CCOCCSc2ccc(Cl)cc2)C1 (stereo not drawn) | inconclusive: -31.2% |
| CC(=O)OC[C@@H]1CN(Cc2cccc(C(F)(F)F)c2)C[C@H](n2cnc3c(NCc4ccco4)ncnc32)O1 | inactive: 11.9% |
| CN1CCN(S(=O)(=O)c2ccccc2)C(c2ccccc2)C1 (stereo not drawn) | inactive: -2.17% |
| COc1ccc(N2CCN(C(=O)c3csc4ccccc34)CC2)cc1 | inactive: -6.43% |
| Cc1ccc(C)c(-n2c3nc(=O)[nH]c(=O)c-3cc3cc([N+](=O)[O-])ccc32)c1 | active: -99.3% |
| Cc1cc(Cl)nc(SCC(=O)c2ccccc2)n1 | inconclusive: -32.8% |
| CC(=O)N1CCN(c2nc(-c3ccco3)c3c(c2C#N)CC(C)(C)SC3)CC1 | inconclusive: -42.8% |
| c1cncc(-c2nn3c(Cn4cnc5ccccc54)nnc3s2)c1 | inconclusive: -36% |
| Cc1nn(-c2ccccc2)c(Cl)c1/C=N/NC(=O)c1nn(C)cc1[N+](=O)[O-] | active: -65.7% |
| CC1CC(C)CN(CCCNC(=O)c2ccc3c(c2)N(Cc2ccccc2)C(=O)c2ccccc2S3=O)C1 (stereo not drawn) | inconclusive: -38.6% |
| O=C(CN1CCN(C2CCCCC2)CC1)Nc1ccccc1-c1ccccc1 | inconclusive: -44.8% |
| C/C(=N\Nc1cccc(Cl)c1)C1(C)N(O)C(C)(C)C(c2ccco2)=[N+]1[O-] (stereo not drawn) | inactive: -23.5% |
| Cc1cccc(NC(=O)c2ccc(S(=O)(=O)N3CCC(C)CC3)cc2)n1 | inactive: -12.1% |
| Cc1ccc(-n2ncc(C(=O)NCC3CCN(C4CCCC4)C3)c2C2CCN(C(=O)OC(C)(C)C)CC2)cc1C (stereo not drawn) | inconclusive: -33.8% |
| O=C(Cn1sc2ccccc2c1=O)Nc1ccc(F)cc1 | active: -104% |
| CCOC(=O)C1=C(CN2CCOCC2)NC(=O)NC1c1cccc([N+](=O)[O-])c1 (stereo not drawn) | inactive: 10.2% |
| COc1ccc(C2(C)NC(=O)N(CC(=O)c3cc(C)n(C4CC4)c3C)C2=O)cc1OC (stereo not drawn) | inactive: 6.73% |
| COc1ccc(C2N=C(N)N=C(N)N2c2ccc(C)cc2)cc1 (stereo not drawn) | inconclusive: -31.2% |
| Cc1cccc(C)c1NC(=O)CSc1nnc(-c2ccccc2)n1Cc1ccc2c(c1)OCO2 | inconclusive: -37.1% |
| CC(C)c1ccc(NC(=S)NC2CCN(Cc3ccccc3)CC2)cc1 | active: -88.6% |
